# Laboratory results: paper PMC4336329 (PLoS ONE, 2015)
# Hit rate of the full screen: of about 310,000 compounds, about 2,200 (0.71%) showed an effect of 50% or more. Effects have a minus sign here. The list shows a part of the results.
# Target: human ether-à-go-go-related gene (hERG) potassium channel (human, UniProt Q12809)
# Assay: primary screen, population patch clamp on CHO cells stably expressing hERG
# Sequence of human ether-à-go-go-related gene (hERG) potassium channel (Q12809 whole entry, looked up): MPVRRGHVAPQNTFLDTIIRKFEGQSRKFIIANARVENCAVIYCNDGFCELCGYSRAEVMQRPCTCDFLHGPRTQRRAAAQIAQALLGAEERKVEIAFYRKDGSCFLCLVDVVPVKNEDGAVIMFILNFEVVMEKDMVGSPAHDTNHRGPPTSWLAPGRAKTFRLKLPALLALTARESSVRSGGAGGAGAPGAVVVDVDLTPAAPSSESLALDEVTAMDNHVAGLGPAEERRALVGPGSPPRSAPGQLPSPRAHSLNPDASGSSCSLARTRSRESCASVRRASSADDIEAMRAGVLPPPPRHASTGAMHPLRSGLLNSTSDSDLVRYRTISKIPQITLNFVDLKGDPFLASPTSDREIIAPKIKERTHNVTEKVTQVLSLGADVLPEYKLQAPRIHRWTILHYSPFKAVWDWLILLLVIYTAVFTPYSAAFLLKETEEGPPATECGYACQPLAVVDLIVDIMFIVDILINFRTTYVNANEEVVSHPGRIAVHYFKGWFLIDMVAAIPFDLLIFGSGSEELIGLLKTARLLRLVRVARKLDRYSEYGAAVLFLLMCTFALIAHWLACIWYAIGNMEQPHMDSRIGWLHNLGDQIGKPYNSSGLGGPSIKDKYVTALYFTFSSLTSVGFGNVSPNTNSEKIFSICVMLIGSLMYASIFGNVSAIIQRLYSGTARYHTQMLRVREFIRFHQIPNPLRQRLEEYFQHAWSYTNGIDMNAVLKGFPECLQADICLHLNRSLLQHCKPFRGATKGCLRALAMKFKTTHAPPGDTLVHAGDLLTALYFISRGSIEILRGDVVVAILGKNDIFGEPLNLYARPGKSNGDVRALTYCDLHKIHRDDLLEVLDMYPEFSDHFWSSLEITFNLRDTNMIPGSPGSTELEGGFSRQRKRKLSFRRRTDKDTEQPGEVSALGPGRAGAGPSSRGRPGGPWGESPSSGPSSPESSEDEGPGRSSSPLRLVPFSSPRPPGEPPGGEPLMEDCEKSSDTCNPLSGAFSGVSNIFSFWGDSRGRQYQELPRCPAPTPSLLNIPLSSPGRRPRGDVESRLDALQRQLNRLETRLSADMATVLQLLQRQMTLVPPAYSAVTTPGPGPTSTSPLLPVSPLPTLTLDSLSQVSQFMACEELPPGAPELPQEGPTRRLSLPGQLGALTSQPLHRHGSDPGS
row,SMILES,"hERG current change (%, negative = inhibition) at 1uM [%]"
1,COc1ccc(C(=O)c2cnc3ccccc3c2-c2ccccc2)cc1,6.04
2,CCCN(CCC)CCCNC(=O)c1cn(-c2ccc(OC)cc2)c(=O)c2ccccc12,1.46
3,COc1ccc(CCn2c(=N)c(C(=O)NCCN3CCOCC3)cc3c(=O)n4ccccc4nc32)cc1OC,10.4
4,COCCNC(=O)CN(Cc1ccco1)C(=O)CCC(=O)Nc1nccs1,5.6
5,CCOc1ccc(NC(=O)CSc2nnc(C3CC3)n2C)cc1S(=O)(=O)N1CCCCC1,11.7
6,COCCn1c(=S)[nH]c2cc(C(=O)NCCc3ccccc3)ccc2c1=O,9.53
7,Cn1cccc1C(=O)OCC(=O)NCc1ccc2c(c1)OCO2,-3
8,CCN(C(=O)Cc1ccccc1OC)c1nnc(-c2ccncc2)s1,-2.65
9,Cc1nn(Cc2c(Cl)cccc2Cl)c(C)c1NC(=O)CCCn1nc([N+](=O)[O-])c(Cl)c1C,-6.64
10,CCN(Cc1nc(-c2ccc(OC)cc2)no1)C(=O)c1ccoc1C,14.9
11,O=C(NC1CC1)c1cc(-c2ccccn2)nc2ccccc12,-1.15
12,CCCCc1nc2cc(C(=O)N(C)CCc3cn[nH]c3)ccc2o1,10.6
13,CCOc1ccc(C(=O)O/N=C(\N)c2ccc([N+](=O)[O-])cc2)cc1OCC,13.3
14,CC1CCC(N(C(=O)c2csnn2)C(C(=O)NC(C)(C)C)c2cccnc2)CC1 (stereo not drawn),-0.468
15,Cc1ccc(S(=O)(=O)N2CCN(C(=O)CSC(=S)N3CCCC3)CC2)c(C)c1,8.6
16,CC(C)CCNc1nc(N)c([N+](=O)[O-])c(NC2CCCCC2)n1,7.05
17,Cc1sc2nc(SCC(=O)NCc3ccco3)n(C)c(=O)c2c1C,-3.55
18,CS(=O)(=O)N1CCN(c2nc3ccccc3s2)CC1,5.81
19,O=C(Nc1ccc(C(=O)NCCCN2CCN(c3ccccc3)CC2)cc1)C1=CSCCO1,5.57
20,CC(C)(C)C(=O)NC(=S)Nc1ccc(Cc2ccncc2)cc1,16
21,Cc1ccc(C(=O)OCC(=O)NC(=O)c2cccn2C)cc1[N+](=O)[O-],11.5
22,CCCn1c(=NC(C)=O)c(C(=O)OCC)cc2c(=O)n3ccccc3nc21,8.09

row,SMILES,"hERG current change (%, negative = inhibition) at 1uM [%]"
1,Cc1[nH]c2ccccc2c1C(=O)NS(=O)(=O)Nc1ccc(Cl)cc1,9.2
2,CC(C)CN(CC(C)C)C(=O)c1cccc(S(=O)(=O)N2CCc3ccccc32)c1,0.384
3,COc1ccc(C(NC(C)=O)c2nccc3cc(OC)c(OC)cc23)cc1OC (stereo not drawn),14.6
4,O=C(COc1ccc(NC(=O)c2ccccc2[N+](=O)[O-])cc1)c1ccc(F)cc1,11.5
5,O=C(Cc1ccc(Cl)cc1)Nc1ccc(Br)cc1,6.68
6,COc1ccc(-c2cc3c(=O)n(CC(=O)NCc4ccc(C)cc4)ncn3n2)cc1,4.61
7,N#Cc1c(Sc2ncc(C(F)(F)F)cc2Cl)nsc1C/C=N\OCc1c(F)cccc1Cl,2.01
8,CC(O)[C@H]1CC[C@H]2[C@@H]3CC[C@H]4C[C@H](O)CC[C@]4(C)[C@H]3[C@H](O)C[C@]12C (stereo partly drawn),12.2
9,C#CCN1C(=O)C2C(C(=O)NC)C3C=CC2(O3)C1C(=O)NCc1ccc(OC)cc1 (stereo not drawn),8.8
10,Cc1ccc(NC(=O)CN2C(=O)S/C(=C/c3ccncc3)C2=O)cc1,9.58
11,CCCn1nnnc1NCc1cccc(Cl)c1,8.87
12,COc1oc(-c2ccc(Cl)cc2)nc1C(F)(F)F,8.77
13,Cc1ccc(S(=O)(=O)N2CCCCC2C(=O)Nc2nncs2)cc1 (stereo not drawn),8.1
14,S=c1[nH]nc(-c2ccccn2)n1/N=C/c1cccc(Cl)c1,13.1
15,Cc1cccc(CN2CCC(C(=O)Nc3ccc(-n4nc(C)cc4C)cc3)CC2)n1,5.92
16,Cc1ccc(N(CC(=O)NC(C)C)C(=O)CCC(=O)Nc2nccs2)c(C)c1,12.6
17,O=S(=O)(c1ccc(Cl)nc1)N1CCc2ccccc21,20.3
18,CNC(=O)c1cc(C(=O)c2ccc(C(F)(F)F)cc2)c[nH]1,17.4
19,Nc1ncc(-n2cncn2)c(-c2ccc(Cl)cc2)n1,14.9
20,O=C(CCC(=O)OCc1ccc([N+](=O)[O-])cc1Cl)Nc1ccccc1,2.63
21,O=C(c1ccc(Cl)c(S(=O)(=O)N2CCOCC2)c1)N1CCN(c2ccccn2)CC1,-4.66
22,O=C(Nc1ccc(S(=O)(=O)NCc2ccccc2)cc1)c1ccc(Br)o1,-10.5

row,SMILES,"hERG current change (%, negative = inhibition) at 1uM [%]"
1,O=C(NCCCn1cccn1)C1CCC(=O)N(Cc2ccccc2F)C1 (stereo not drawn),7.05
2,O=C1OCCC1Sc1nnc(-c2ccc(O)cc2)o1 (stereo not drawn),17.1
3,CS(=O)(=O)N(CC(=O)NCCSC1CCCCC1)c1ccc2c(c1)OCO2,1.66
4,Cc1ccc(N(C(=O)c2ccco2)C2C=CS(=O)(=O)C2)cc1 (stereo not drawn),3.68
5,COc1ccccc1-c1ccc(C(=O)O)o1,12.7
6,CC1=NN(C)C(=O)C1Cc1c(F)cccc1Cl (stereo not drawn),6.67
7,Nc1nc2n(n1)C1(CCCCC1)C1=C(CCCC1)N2,-16.4
8,CSc1ccccc1OCc1cc(C(=O)NCc2ccc(C)s2)no1,14.5
9,CCN(CC(=O)NCc1ccco1)S(=O)(=O)c1ccc(F)cc1,12.5
10,COc1ccc(CN2CCCC(N3CCN(c4ccc(OC)cc4)CC3)C2)cc1 (stereo not drawn),-4.79
11,CC(C)C(NS(=O)(=O)c1cccc2nsnc12)C(=O)NC1CCCCC1C (stereo not drawn),14.6
12,CC(=O)N1CCCc2cc(S(=O)(=O)N3CCN(C4CCCCC4)CC3)ccc21,5.2
13,COc1ccc(CC(=O)Nc2c(C(N)=O)oc3ccccc23)cc1OC,11.6
14,CCc1cccc(OCC(=O)Nc2cc(S(=O)(=O)N3CCOCC3)ccc2N2CCCC2)c1,15.2
15,COc1ccccc1/C=N/NC(=O)c1[nH]c(C)c(C(=O)N/N=C/c2ccccc2OC)c1C,12.9
16,N#Cc1ccc2[nH]c(CO)c(-c3ccccc3)c2c1,-3.83
17,C=CCn1c(O)c(Cc2ccc(OCC)cc2)c(=O)[nH]c1=O,15.7
18,Cc1ccc(-c2csc(NC(=O)c3ccccc3F)c2C(=O)O)cc1,15.2
19,COc1ccc(S(=O)(=O)c2ccc(O)cc2)cc1,0.81
20,CN(C)CC(=O)c1c(N)n(Cc2ccccc2)c(=O)n(C)c1=O,8.34
21,COc1ccc(NC(=O)c2cccnn2)cc1,16.6
22,CCOc1ccc(OCCC(=O)N(CCC2=CCCCC2)c2c(N)n(Cc3ccccc3)c(=O)[nH]c2=O)cc1,8.95

row,SMILES,"hERG current change (%, negative = inhibition) at 1uM [%]"
1,Cc1ccccc1N=C1SCC(=O)N1Cc1ccccc1,5.03
2,O=C(CSc1nc2ccccc2o1)N1c2ccccc2Sc2ccc(C(F)(F)F)cc21,10.6
3,c1ccc(C2=NN(c3ccccc3)C(c3ccco3)C2)cc1 (stereo not drawn),13.5
4,O=C(Nc1cccnc1)C1CCCN(c2ncnc3c2nc2n3CCCCC2)C1 (stereo not drawn),-8.21
5,CCOC(=O)c1c(C)n(C)c2ccc(OC(=O)c3ccc(N4C(=O)CCC4=O)cc3)cc12,8.82
6,Cc1cc(C)n(CC(O)COc2ccc(Cl)cc2Cl)n1 (stereo not drawn),7.74
7,O=C(c1cccnc1Cl)N(Cc1ccccc1)Cc1ccccc1,-2.21
8,CCc1nc(SCc2ccc(F)cc2)n[nH]1,9.14
9,CCc1cc2c(N3CCN(C(=O)c4ccco4)CC3)ncnc2s1,-20.1
10,COc1ccc(N(CC(=O)N2CCC(C(N)=O)CC2)S(=O)(=O)c2ccccc2)cc1,11.8
11,O=C(COc1cccc(-n2cnnn2)c1)Nc1ccc([N+](=O)[O-])cc1,-23
12,COc1ccc2[nH]c(=O)c(-c3nnn(-c4ccccc4)n3)cc2c1,7.29
13,O=C(COc1ccc(Cl)cc1)NNC(=S)NCc1ccccc1,14.2
14,NC(=O)CSc1nnc(NC(=O)c2ccc(S(=O)(=O)N3CCOCC3)cc2)s1,5.26
15,CC(=O)N(c1ccc(Cl)cc1)c1nc(C)cc(C)c1C#N,8.09
16,O=C(c1ccccc1S(=O)(=O)NCc1ccccc1)N1CCCCC1,-0.529
17,O=C(C1CC(=O)N(c2ccc(Br)cc2)C1)N1CCCC1 (stereo not drawn),4.46
18,C1CCN(c2nc(N3CCCCC3)nc(N3CCNCC3)n2)CC1,2.68
19,COc1ccc(Nc2nnc(SCc3cc(=O)n4ccsc4n3)s2)cc1,-38
20,NC(=O)[C@H](Cc1cc2ccccc2s1)NC(=O)[C@@H]1CC2(CC(c3cccc(NC(=O)[C@@H]4CCC(=O)N4)c3)=NO2)CN1C(=O)/C=C/Sc1ccccc1 (stereo partly drawn),12.2
21,O=C(CNC(=O)c1ccc(Oc2ccccc2)cc1)OCc1ccc(Br)cc1,-1.37
